Records with an inconclusive call do not appear. A number of entries come with more than one value. This is not the full list of results. An entry can have further records. Values that stand side by side do not match, cause unknown; dose, time, organism, isomer or construct need not be as stated for each record. Starred links: 1 amine or outer side, 2 acyl side, 3 side chain; linkers in the order of their positions; H or OH if unused. Positions of bridges follow the written chain, without caps; N, C: chain ends. Non-standard residues stand in square brackets, D forms with d. Residues, ends and D or L forms follow the SMILES beside them. Chains are numbered I, II in the order given. Actinocin(9to1) = Cc1c2oc3c(C)ccc(C(=O)[*:1])c3nc-2c(C(=O)[*:2])c(N)c1=O; aThr = C[C@H](O)[C@H](N)C(=O)O; NMeV = CN[C@H](C(=O)O)C(C)C; Sar = CNCC(=O)O

Here are results for 19 molecules from PubChem BioAssay AID220 (DTP/NCI, 2004).

For the experiment, the system named is CD8F1 mice, subcutaneous mammary adenocarcinoma, T/C%. In words: NCI In Vivo Anticancer Drug Screen. Data for tumor model Mammary Adenocarcinoma CD8F1 (subcutaneous) in CD8F1. As to conditions: higher = larger tumour. In short, it runs like this:
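Tumor-bearing mice, transplantable model; readout survival or tumor size; value = treated (T) / vehicle control (C).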

The mark [1] stands for this setting: endpoint: median tumor weight change, dose: 125.0 mg/kg/injection, schedule: Q01DX001 (ip), vehicle: saline with Tween-80.
Where [2] appears, read: endpoint: median tumor weight change, dose: 250.0 mg/kg/injection, schedule: Q01DX001 (ip), vehicle: saline with Tween-80.
Where [3] appears, read: endpoint: median tumor weight change, dose: 500.0 mg/kg/injection, schedule: Q01DX001 (ip), vehicle: saline with Tween-80.

Regarding `Cc1cc(NCCN(C(C)C)C(C)C)nc(/N=C(\N)Nc2ccc(Cl)c(C(F)(F)F)c2)n1`, for the setting “endpoint: median tumor weight change, dose: 25.0 mg/kg/injection, schedule: Q01DX001 (ip), vehicle: Klucel (hydroxypropylcellulose) (HPC)”, the T/C is 49 % of control and 75 % of control.

Take `N[C@@H](Cc1ccc(N(CCCl)CCCl)cc1)C(=O)O`: the T/C (endpoint: median tumor weight (est.), dose: 8.0 mg/kg/injection, schedule: Q01DX001 (ip), vehicle: suspension in saline) was 21 % of control, 28 % of control, 50 % of control. `Cc1c2oc3c(C)ccc(C(=O)N[C@@H]4C(=O)N[C@H](C(C)C)C(=O)N5CCC[C@H]5C(=O)N(C)CC(=O)N(C)[C@@H](C(C)C)C(=O)O[C@H]4C)c3nc-2c(C(=O)N[C@@H]2C(=O)N[C@H](C(C)C)C(=O)N3CCC[C@H]3C(=O)N(C)CC(=O)N(C)[C@@H](C(C)C)C(=O)O[C@H]2C)c(N)c1=O` (I: [aThr][dV]P[Sar][NMeV] / II: [aThr][dV]P[Sar][NMeV]; ester I:1-I:C, II:1-II:C; linker I:N-II:N via Actinocin(9to1)): where the note is “endpoint: median tumor weight change, dose: 1.0 mg/kg/injection, schedule: Q01DX001 (ip), vehicle: saline”, the T/C is -80 % of control and -46 % of control. As to `Nc1ncnc2c1nnn2C1OC(CO)C(O)C1O` (configuration not stated), the T/C (endpoint: median tumor weight change, dose: 125.0 mg/kg/injection, schedule: Q01DX001 (ip), vehicle: Klucel (hydroxypropylcellulose) (HPC)) was 40 % of control and 96 % of control.

Consider `COc1ccc(C(=O)c2no[n+]([O-])c2C(=O)c2ccc(OC)cc2)cc1`, for which the T/C reads like this: under setting [1], 32 % of control and 94 % of control; under setting [2], 42 % of control and 99 % of control.

As for `C[C@]12CC[C@@H]3c4ccc(OC(=O)Cc5ccc(N(CCCl)CCCl)cc5)cc4CC[C@H]3[C@@H]1CC[C@@H]2OC(=O)Cc1ccc(N(CCCl)CCCl)cc1`, the T/C was 55 % of control and 83 % of control (endpoint: median tumor weight (est.), dose: 100.0 mg/kg/injection, schedule: Q07DX005 (ip), vehicle: saline with Tween-80); 38 % of control and 70 % of control (endpoint: median tumor weight (est.), dose: 200.0 mg/kg/injection, schedule: Q07DX005 (ip), vehicle: saline with Tween-80).

Regarding `OCC1OC(n2cnc3c2nnn2ccnc32)C(O)C1O` (configuration not stated), the T/C (endpoint: mean tumor weight, dose: 300.0 mg/kg/injection, schedule: Q07DX005 (ip), vehicle: saline) is 44 % of control and 207 % of control. In the case of `C[PH+](C)C.C[PH+](C)C.[Au]`, the T/C (endpoint: median tumor weight change, dose: 6.25 mg/kg/injection, schedule: Q01DX001 (ip), vehicle: saline) is 93 % of control and 124 % of control.

Take `Cc1oc2c(C)c3oc(=O)cc(C)c3cc2c1CCl`: the T/C runs as follows: (endpoint: median tumor weight change, dose: 62.5 mg/kg/injection, schedule: Q01DX001 (ip), vehicle: saline with Tween-80) 19 % of control and 62 % of control; under setting [3], 23 % of control, 29 % of control, 103 % of control. As for `CC(C)CCCCCCCCCCCCC(=O)NCC(=O)NC1C(O)C(O)C(Nc2ncnc3nc[nH]c23)OC1C(O)CO` (configuration not stated), where the note is “endpoint: median tumor weight (est.), dose: 4.0 mg/kg/injection, schedule: Q07DX005 (ip), vehicle: Klucel (hydroxypropylcellulose) (HPC)”, the T/C was 14 % of control and 97 % of control. With `O=C(C/C(=N\C(=S)Nc1cc(C(F)(F)F)ccc1Cl)NO)N1CCCC1`, the T/C under setting [2] was 82 % of control and 115 % of control; the T/C under setting [3] was 39 % of control and 120 % of control; the T/C (endpoint: median tumor weight change, dose: 1000.0 mg/kg/injection, schedule: Q01DX001 (ip), vehicle: saline with Tween-80) was 15 % of control and 78 % of control. On to `C/C=C/C=C/c1cc2cc3c(c(O)c2c(=O)[nH]1)C1(CC3)C(O)=c2c(=O)c3c(=O)cc(OC)c(=O)c=3c(=O)c2=C1O` (configuration not stated), for which the T/C (endpoint: median tumor weight change, dose: 0.31 mg/kg/injection, schedule: Q01DX001 (ip), vehicle: DMSO) is 68 % of control and 112 % of control; the T/C (endpoint: median tumor weight change, dose: 0.62 mg/kg/injection, schedule: Q01DX001 (ip), vehicle: DMSO) was 53 % of control, 71 % of control, 92 % of control; the T/C (endpoint: median tumor weight change, dose: 1.25 mg/kg/injection, schedule: Q01DX001 (ip), vehicle: DMSO) is reported as 7 % of control, 34 % of control, 89 % of control. For the molecule `O=Cc1c(O)c2ccccc2[nH]c1=O`, the T/C under setting [1] is 59 % of control and 118 % of control. For the molecule `Cc1ccc(C2NC(=O)c3ccccc3N2)s1` (configuration not stated), the T/C was 40 % of control and 122 % of control (endpoint: median tumor weight (est.), dose: 100.0 mg/kg/injection, schedule: Q07DX005 (ip), vehicle: Klucel (hydroxypropylcellulose) (HPC)); 77 % of control and 183 % of control (endpoint: median tumor weight (est.), dose: 200.0 mg/kg/injection, schedule: Q07DX005 (ip), vehicle: Klucel (hydroxypropylcellulose) (HPC)); 72 % of control and 178 % of control (endpoint: median tumor weight (est.), dose: 400.0 mg/kg/injection, schedule: Q07DX005 (ip), vehicle: Klucel (hydroxypropylcellulose) (HPC)).

Take `CC1OC(OC2CC(O)(C(=O)CO)Cc3c(O)c4c(c(O)c32)C(=O)c2ccccc2C4=O)CC(N)C1O` (configuration not stated): the T/C (endpoint: median tumor weight change, dose: 2.5 mg/kg/injection, schedule: Q01DX001 (ip), vehicle: water) is -30 % of control and 20 % of control; the T/C (endpoint: median tumor weight change, dose: 5.0 mg/kg/injection, schedule: Q01DX001 (ip), vehicle: water) is -60 % of control and -13 % of control. As for `CCCCC(=O)OCC(=O)[C@]1(O)Cc2c(O)c3c(c(O)c2[C@@H](OC2CC(NC(=O)C(F)(F)F)C(O)C(C)O2)C1)C(=O)c1c(OC)cccc1C3=O` (some centres not stated), the T/C runs as follows: (endpoint: median tumor weight change, dose: 133.0 mg/kg/injection, schedule: Q01DX001 (ip), vehicle: clinical formulation) -15 % of control and 31 % of control; (endpoint: median tumor weight change, dose: 200.0 mg/kg/injection, schedule: Q01DX001 (ip), vehicle: clinical formulation) -31 % of control and 53 % of control; (endpoint: median tumor weight change, dose: 300.0 mg/kg/injection, schedule: Q01DX001 (ip), vehicle: clinical formulation) -41 % of control and 8 % of control. With `C[n+]1cccc(NC(=O)c2ccc(NC(=O)C34CCC(C(=O)Nc5ccc(C(=O)Nc6ccc[n+](C)c6)cc5)(CC3)CC4)cc2)c1`, where the note is “endpoint: median tumor weight change, dose: 100.0 mg/kg/injection, schedule: Q01DX001 (ip), vehicle: saline with Tween-80”, the T/C is 31 % of control, 47 % of control, 84 % of control. As for `NC(CCl)=NCC12CC3CC(CC(C3)C1)C2`, the T/C (endpoint: median tumor weight (est.), dose: 6.25 mg/kg/injection, schedule: Q07DX005 (ip), vehicle: Klucel (hydroxypropylcellulose) (HPC)) was 65 % of control and 162 % of control.

For the molecule `CCN(CC)CCNc1ccc(C)c2sc3ccc(O)cc3c(=O)c12`, the T/C is, setting by setting: under setting [2], 57 % of control and 168 % of control; under setting [3], 19 % of control and 99 % of control.
